# Data published in the supplement of paper PMC8728848.
# This is one part of the list.
# B1: Siglec-F (Mus musculus), Q920G3 (protein)
# chain: MRWAWLLPLLWAGCLATDGYSLSVTGSVTVQEGLCVFVACQVQYPNSKGPVFGYWFREGANIFSGSPVATNDPQRSVLKEAQGRFYLMGKENSHNCSLDIRDAQKIDTGTYFFRLDGSVKYSFQKSMLSVLVIALTEVPNIQVTSTLVSGNSTKLLCSVPWACEQGTPPIFSWMSSALTSLGHRTTLSSELNLTPRPQDNGTNLTCQVNLPGTGVTVERTQQLSVIYAPQKMTIRVSWGDDTGTKVLQSGASLQIQEGESLSLVCMADSNPPAVLSWERPTQKPFQLSTPAELQLPRAELEDQGKYICQAQNSQGAQTASVSLSIRSLLQLLGPSCSFEGQGLHCSCSSRAWPAPSLRWRLGEGVLEGNSSNGSFTVKSSSAGQWANSSLILSMEFSSNHRLSCEAWSDNRVQRATILLVSGPKVSQAGKSETSRGTVLGAIWGAGLMALLAVCLCLIFFTVKVLRKKSALKVAATKGNHLAKNPASTINSASITSSNIALGYPIQGHLNEPGSQTQKEQPPLATVPDTQKDEPELHYASLSFQGPMPPKPQNTEAMKSVYTEIKIHKC
# Experiments:
# Test in all cases: glycan array binding signal (z-score within array); higher = stronger binding
# Details in all cases: glycan notation: IUPAC condensed, linker removed
# [1] = target: Neu5Ac(a2-3)Gal(b1-4)[Fuc(a1-3)]GlcNAc(b1-3)Gal
# In short: (§1)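 Negative Z-scores can be read as non-binding. The Z-score is calculated within each array and then averaged across arrays of one protein sequence at different concentrations or buffers and across linkers. Arrays, 3228 in all, were curated from the Consortium for Functional Glycomics database and kept only where the protein sequence was available.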
# [2] = target: Neu5Ac(a2-3)Gal(b1-4)[Fuc(a1-3)]GlcNAc(b1-3)Gal(b1-4)GlcNAc
# In short: as §1
# [3] = target: Neu5Ac(a2-3)Gal(b1-4)[Fuc(a1-3)]GlcNAc(b1-3)Gal(b1-4)[Fuc(a1-3)]GlcNAc(b1-3)Gal(b1-4)[Fuc(a1-3)]GlcNAc
# In short: as §1
# [4] = target: Neu5Ac(a2-3)Gal(b1-4)[Fuc(a1-3)]GlcNAc(b1-3)GalNAc
# In short: as §1
# [5] = target: Neu5Ac(a2-3)Gal(b1-4)[Fuc(a1-3)]GlcNAc(b1-6)[Gal(b1-3)]GalNAc
# In short: as §1
# [6] = target: Neu5Ac(a2-3)Gal(b1-4)[Fuc(a1-3)]GlcNAc(b1-6)[Neu5Ac(a2-3)Gal(b1-3)]GalNAc
# In short: as §1
# [7] = target: Neu5Ac(a2-3)Gal(b1-4)[Fuc(a1-3)]GlcNAc6S
# In short: as §1
# [8] = target: Neu5Ac(a2-3)Gal6S(b1-4)GlcNAc
# In short: as §1
# [9] = target: Neu5Ac(a2-3)Gal6S(b1-4)[Fuc(a1-3)]GlcNAc
# In short: as §1
# Neu5Ac(a2-3)GalNAc = target: Neu5Ac(a2-3)GalNAc
# In short: as §1
# [10] = target: Neu5Ac(a2-3)GalNAc(b1-4)GlcNAc
# In short: as §1
# [11] = target: Neu5Ac(a2-3)[GalNAc(b1-4)]Gal(b1-4)Glc
# In short: as §1
# [12] = target: Neu5Ac(a2-3)[GalNAc(b1-4)]Gal(b1-4)GlcNAc
# In short: as §1
# [13] = target: Neu5Ac(a2-3)[GalNAc(b1-4)]Gal(b1-4)GlcNAc(b1-3)GalNAc
# In short: as §1
# [14] = target: Neu5Ac(a2-3)[Neu5Ac(a2-6)]GalNAc
# In short: as §1
# Neu5Ac(a2-6)Gal = target: Neu5Ac(a2-6)Gal
# In short: as §1
# [15] = target: Neu5Ac(a2-6)Gal(b1-3)GlcNAc(b1-3)[Gal(b1-4)GlcNAc(b1-6)]Gal(b1-4)Glc
# In short: as §1
# Neu5Ac(a2-6)Gal(b1-4)Glc = target: Neu5Ac(a2-6)Gal(b1-4)Glc
# In short: as §1
# [16] = target: Neu5Ac(a2-6)Gal(b1-4)GlcNAc
# In short: as §1
# [17] = target: Neu5Ac(a2-6)Gal(b1-4)GlcNAc(b1-2)Man
# In short: as §1
# [18] = target: Neu5Ac(a2-6)Gal(b1-4)GlcNAc(b1-2)Man(a1-3)Man(b1-4)GlcNAc(b1-4)GlcNAc
# In short: as §1
# [19] = target: Neu5Ac(a2-6)Gal(b1-4)GlcNAc(b1-2)Man(a1-3)[Gal(b1-4)GlcNAc(b1-2)Man(a1-6)]Man(b1-4)GlcNAc(b1-4)GlcNAc
# In short: as §1
# [20] = target: Neu5Ac(a2-6)Gal(b1-4)GlcNAc(b1-2)Man(a1-3)[GlcNAc(b1-2)Man(a1-6)]Man(b1-4)GlcNAc(b1-4)GlcNAc
# In short: as §1
# [21] = target: Neu5Ac(a2-6)Gal(b1-4)GlcNAc(b1-2)Man(a1-3)[GlcNAc(b1-2)Man(b1-4)GlcNAc(b1-2)Man(a1-6)]Man(b1-4)GlcNAc(b1-4)GlcNAc
# In short: as §1
# [22] = target: Neu5Ac(a2-6)Gal(b1-4)GlcNAc(b1-2)Man(a1-3)[GlcNAc(b1-4)][Neu5Ac(a2-6)Gal(b1-4)GlcNAc(b1-2)Man(a1-6)]Man(b1-4)GlcNAc(b1-4)GlcNAc
# In short: as §1
# [23] = target: Neu5Ac(a2-6)Gal(b1-4)GlcNAc(b1-2)Man(a1-3)[Man(a1-6)]Man(b1-4)GlcNAc(b1-4)GlcNAc
# In short: as §1
# [24] = target: Neu5Ac(a2-6)Gal(b1-4)GlcNAc(b1-2)Man(a1-3)[Neu5Ac(a2-3)Gal(b1-4)GlcNAc(b1-2)Man(a1-6)]Man(b1-4)GlcNAc(b1-4)GlcNAc
# In short: as §1
# [25] = target: Neu5Ac(a2-6)Gal(b1-4)GlcNAc(b1-2)Man(a1-3)[Neu5Ac(a2-6)Gal(b1-4)GlcNAc(b1-2)Man(a1-6)]Man(b1-4)GlcNAc(b1-4)GlcNAc
# In short: as §1
# [26] = target: Neu5Ac(a2-6)Gal(b1-4)GlcNAc(b1-2)Man(a1-3)[Neu5Ac(a2-6)Gal(b1-4)GlcNAc(b1-2)Man(a1-6)]Man(b1-4)GlcNAc(b1-4)[Fuc(a1-6)]GlcNAc
# In short: as §1
# [27] = target: Neu5Ac(a2-6)Gal(b1-4)GlcNAc(b1-2)Man(a1-6)Man(b1-4)GlcNAc(b1-4)GlcNAc
# In short: as §1
binder,measurement,setting,value
B1,glycan array binding signal (z-score),[1],-0.088
same,glycan array binding signal (z-score),[2],-0.103
same,glycan array binding signal (z-score),[3],-0.109
same,glycan array binding signal (z-score),[4],-0.115
same,glycan array binding signal (z-score),[5],-0.034
same,glycan array binding signal (z-score),[6],0.02
same,glycan array binding signal (z-score),[7],-0.025
same,glycan array binding signal (z-score),[8],13.2
same,glycan array binding signal (z-score),[9],12.9
same,glycan array binding signal (z-score),Neu5Ac(a2-3)GalNAc,-0.125
same,glycan array binding signal (z-score),[10],0.292
same,glycan array binding signal (z-score),[11],-0.044
same,glycan array binding signal (z-score),[12],-0.065
same,glycan array binding signal (z-score),[13],0.04
same,glycan array binding signal (z-score),[14],-0.1
same,glycan array binding signal (z-score),Neu5Ac(a2-6)Gal,-0.117
same,glycan array binding signal (z-score),[15],-0.111
same,glycan array binding signal (z-score),Neu5Ac(a2-6)Gal(b1-4)Glc,-0.117
same,glycan array binding signal (z-score),[16],-0.114
same,glycan array binding signal (z-score),[17],-0.153
same,glycan array binding signal (z-score),[18],-0.11
same,glycan array binding signal (z-score),[19],-0.088
same,glycan array binding signal (z-score),[20],-0.099
same,glycan array binding signal (z-score),[21],0.334
same,glycan array binding signal (z-score),[22],-0.149
same,glycan array binding signal (z-score),[23],-0.118
same,glycan array binding signal (z-score),[24],0.793
same,glycan array binding signal (z-score),[25],-0.031
same,glycan array binding signal (z-score),[26],-0.128
same,glycan array binding signal (z-score),[27],-0.113
